In all, about 310,000 compounds went through this assay and about 14,000 (4.5%) showed an effect of 50% or more. The effect is printed as a negative number. The list shows a part of the results.
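Further: peak tail current of the secondary pulse compared with the same well before compound.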

For the experiment, the target named is human ether-à-go-go-related gene (hERG) potassium channel (human, UniProt Q12809). Nature of the experiment: primary screen, population patch clamp on CHO cells stably expressing hERG.
Sequence of human ether-à-go-go-related gene (hERG) potassium channel (Q12809 whole entry, looked up): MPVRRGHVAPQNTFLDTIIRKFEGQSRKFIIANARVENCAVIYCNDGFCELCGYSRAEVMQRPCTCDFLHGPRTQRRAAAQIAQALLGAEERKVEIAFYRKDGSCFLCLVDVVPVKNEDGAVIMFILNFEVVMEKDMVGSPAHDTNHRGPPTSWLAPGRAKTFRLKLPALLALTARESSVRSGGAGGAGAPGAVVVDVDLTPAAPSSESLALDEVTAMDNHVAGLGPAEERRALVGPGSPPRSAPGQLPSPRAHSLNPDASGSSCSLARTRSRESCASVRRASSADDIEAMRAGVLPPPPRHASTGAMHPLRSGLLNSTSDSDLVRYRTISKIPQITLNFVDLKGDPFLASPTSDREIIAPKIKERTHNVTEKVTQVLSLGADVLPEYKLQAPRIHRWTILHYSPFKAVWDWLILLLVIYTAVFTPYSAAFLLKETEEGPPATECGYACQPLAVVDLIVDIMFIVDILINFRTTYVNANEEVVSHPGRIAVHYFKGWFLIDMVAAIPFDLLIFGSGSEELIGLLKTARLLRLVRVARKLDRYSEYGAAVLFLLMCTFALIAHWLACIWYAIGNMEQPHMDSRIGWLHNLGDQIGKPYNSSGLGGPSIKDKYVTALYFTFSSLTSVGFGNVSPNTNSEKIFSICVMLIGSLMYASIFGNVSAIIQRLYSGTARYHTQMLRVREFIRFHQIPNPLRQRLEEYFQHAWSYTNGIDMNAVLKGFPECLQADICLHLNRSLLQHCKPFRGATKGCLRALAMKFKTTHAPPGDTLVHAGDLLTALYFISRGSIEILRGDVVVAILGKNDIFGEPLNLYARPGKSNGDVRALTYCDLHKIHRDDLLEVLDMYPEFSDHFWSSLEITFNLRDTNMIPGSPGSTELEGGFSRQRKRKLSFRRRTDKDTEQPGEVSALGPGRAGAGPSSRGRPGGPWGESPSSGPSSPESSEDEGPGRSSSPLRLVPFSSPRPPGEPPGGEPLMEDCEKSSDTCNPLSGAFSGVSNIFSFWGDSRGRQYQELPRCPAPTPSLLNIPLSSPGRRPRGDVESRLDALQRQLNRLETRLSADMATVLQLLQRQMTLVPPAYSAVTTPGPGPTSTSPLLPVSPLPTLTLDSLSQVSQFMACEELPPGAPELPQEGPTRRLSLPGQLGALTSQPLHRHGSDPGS
On to `CCC(CC)NC(=O)c1cc([N+](=O)[O-])ccc1N1CCOCC1`, for which the “hERG current change (%, negative = inhibition) at 10uM” value is given as 6.79%.

Regarding `Cc1ccc(C2=NN(CCC(=O)N3CCC4(CC3)OCCO4)C(=O)CC2)cc1`, the “hERG current change (%, negative = inhibition) at 10uM” value is reported as -57.5%.

As for `Cc1ccc(OCc2ccoc2C(=O)O)cc1C`, the “hERG current change (%, negative = inhibition) at 10uM” value was found to be 16.6%.

Take `S=C1SCN(CCN2CCOCC2)CN1Cc1ccccc1`: the “hERG current change (%, negative = inhibition) at 10uM” value worked out at 13.9%.

For `CCCc1nc(N2CCN(S(=O)(=O)c3ccc(Cl)cc3)CC2)c2c(C)c(C)sc2n1`, the “hERG current change (%, negative = inhibition) at 10uM” value is recorded as -17.1%.

As for `CCN(CC)CCSc1nnc(Nc2ccccc2)n1-c1ccccc1`, the “hERG current change (%, negative = inhibition) at 10uM” value was -75.9%.

Turning to `COc1cccc(C(=O)/C=C/Nc2ccc(S(=O)(=O)Nc3nc(C)cc(C)n3)cc2)c1`, the “hERG current change (%, negative = inhibition) at 10uM” value is on record as -1.4%.

Turning to `CCOC(=O)C1CCN(Cc2ccc(F)cc2)CC1`, the “hERG current change (%, negative = inhibition) at 10uM” value is given as -11.8%.

Take `CCOC(=O)C1CCCN(C(=O)Cc2ccc(OC)c(OC)c2)C1` (centres unmarked): the “hERG current change (%, negative = inhibition) at 10uM” value is 17.8%.

As to `CN(C)S(=O)(=O)c1ccc(N2CCCC2)c(C(=O)NC2CCCCC2)c1`, the “hERG current change (%, negative = inhibition) at 10uM” value was -16.6%.

On to `Cc1nnc2c(NC3CCCC3)nc3ccccc3n12`, for which the “hERG current change (%, negative = inhibition) at 10uM” value is reported as -37.3%.

For `Cc1c(N)c(=O)n(-c2ccccc2)n1C`, the “hERG current change (%, negative = inhibition) at 10uM” value came to 21.9%.

In the case of `CC(C)[C@@]1(c2ccc(Cl)cc2)ON(c2ccccc2C(F)(F)F)C1=O`, the “hERG current change (%, negative = inhibition) at 10uM” value was 3.85%.

Regarding `CCc1c(C)nc2[nH]nc(-c3ccccc3)n2c1=O`, the “hERG current change (%, negative = inhibition) at 10uM” value was found to be 19%.

Turning to `CCCCCC(=O)N1CCN(CCN=CC2=C(O)CC(c3ccc(OC)c(OC)c3)CC2=O)CC1` (centres unmarked), the “hERG current change (%, negative = inhibition) at 10uM” value is reported as -78.8%.

As for `O=C(c1ccncc1)c1ccc(N2CCN(C3CC(=O)N(Cc4cccs4)C3=O)CC2)cc1` (centres unmarked), the “hERG current change (%, negative = inhibition) at 10uM” value is recorded as -79.3%.

In the case of `O=C(CSc1ccc([N+](=O)[O-])cn1)Nc1nccs1`, the “hERG current change (%, negative = inhibition) at 10uM” value turned out to be 3.54%.

Take `O=C(C1CCCN(S(=O)(=O)c2cccnc2)C1)N1CCN(c2ccccn2)CC1` (centres unmarked): the “hERG current change (%, negative = inhibition) at 10uM” value was -1.74%.

As to `Cc1ccc(N=Nc2ccc3ccccc3c2O)cc1`, the “hERG current change (%, negative = inhibition) at 10uM” value is reported as 16.9%.

For the compound `O=C(CSc1ccsc1[N+](=O)[O-])NC1CCCC1`, the “hERG current change (%, negative = inhibition) at 10uM” value is recorded as -0.976%.

With `CCN(CC)CCC#CC(O)(c1ccccc1)c1ccccc1`, the “hERG current change (%, negative = inhibition) at 10uM” value is listed as -45.7%.

As for `N#Cc1nc(-c2ccccc2F)oc1N1CCCCC1`, the “hERG current change (%, negative = inhibition) at 10uM” value is 20.5%.

Take `CCCc1nc(SCC(=O)c2ccc(F)cc2)c2ccccc2n1`: the “hERG current change (%, negative = inhibition) at 10uM” value is on record as 26.9%.

`Nn1c(Cc2ccccc2)nc2cc(Cl)ccc2c1=O`: the “hERG current change (%, negative = inhibition) at 10uM” value is -3.07%.

As for `COc1ccc(C(CNC(=O)c2cc3ccccc3o2)N2CCCCC2)cc1` (centres unmarked), the “hERG current change (%, negative = inhibition) at 10uM” value is -51.6%.

On to `O=C(C1=C(O)C(=O)N(CCN2CCOCC2)C1c1cccc([N+](=O)[O-])c1)c1cccs1` (centres unmarked), for which the “hERG current change (%, negative = inhibition) at 10uM” value is on record as 7.18%.

For `NC(=O)c1nsc(C(=O)N(Cc2ccco2)C(C(=O)NCC2CCCO2)c2ccc(O)cc2)c1N` (centres unmarked), the “hERG current change (%, negative = inhibition) at 10uM” value worked out at 12%.

On to `COc1ccc(S(=O)(=O)N2N=C(C)Oc3ccccc3C2=O)cc1`, for which the “hERG current change (%, negative = inhibition) at 10uM” value is recorded as -1.52%.

Turning to `O=C(Cc1ccccc1Cl)N1CCN(c2ccccn2)CC1`, the “hERG current change (%, negative = inhibition) at 10uM” value is -15.9%.

On to `CC(C)(C)NC(=O)C(c1ccncc1)N(C(=O)c1csnn1)c1ccccc1` (centres unmarked), for which the “hERG current change (%, negative = inhibition) at 10uM” value is given as -6.21%.

For `COc1ccc(NC(=S)NCC2CCCO2)c(OC)c1` (centres unmarked), the “hERG current change (%, negative = inhibition) at 10uM” value is recorded as 12.7%.

As to `COc1cc(OC)cc(C(=O)N[C@H](C(=O)Nc2nnc(C3CC3)s2)C(C)C)c1`, the “hERG current change (%, negative = inhibition) at 10uM” value stood at 15%.

Turning to `COC(=O)c1ccc(Sc2nnnn2-c2ccccc2)c([N+](=O)[O-])c1`, the “hERG current change (%, negative = inhibition) at 10uM” value is recorded as -15.3%.

With `COc1ccc(C)cc1NC(=O)COC(=O)c1ccc(OCc2ccc(Cl)cc2Cl)c(OC)c1`, the “hERG current change (%, negative = inhibition) at 10uM” value worked out at 13.7%.

Turning to `CN(C)S(=O)(=O)c1ccc(N2CCCC2)c(C(=O)NNC(=O)c2ccc(F)cc2)c1`, the “hERG current change (%, negative = inhibition) at 10uM” value is 15.5%.

In the case of `Cn1c(=O)c(Nc2ccc(O)cc2)c2c3c(cccc31)C(=O)c1ccccc1-2`, the “hERG current change (%, negative = inhibition) at 10uM” value was -8.15%.

Take `CN(C)CCN1C(=O)C(=O)/C(=C(/O)c2ccc(S(=O)(=O)N3CCOCC3)cc2)C1c1ccccc1` (centres unmarked): the “hERG current change (%, negative = inhibition) at 10uM” value was 7.1%.

Consider `COc1cc(/C=C2\SC(=S)N(NC(=O)c3ccccc3OC)C2=O)ccc1O`, for which the “hERG current change (%, negative = inhibition) at 10uM” value was 14.5%.

Regarding `CN(C)S(=O)(=O)c1ccc(C(=O)Nc2nc(-c3cccs3)cs2)cc1`, the “hERG current change (%, negative = inhibition) at 10uM” value is reported as 4.51%.

On to `COc1cc2cc(C)nc(Cc3cccc4ccccc34)c2cc1OC`, for which the “hERG current change (%, negative = inhibition) at 10uM” value is 8.53%.

As for `CCOC(=O)C1CCN(C(=O)c2cccc(S(=O)(=O)Nc3ccc(C)cc3C)c2)CC1`, the “hERG current change (%, negative = inhibition) at 10uM” value is -35.7%.

`Cc1ccc(-c2csc3ncnc(N4CCN(c5ccccc5O)CC4)c23)cc1`: the “hERG current change (%, negative = inhibition) at 10uM” value turned out to be 25.8%.

Regarding `Cc1ccc2cc(C=C(C#N)C#N)c(N3CCCCC3)nc2c1`, the “hERG current change (%, negative = inhibition) at 10uM” value is 15.3%.

In the case of `Fc1ccccc1-c1n[nH]c(=S)n1Cc1ccccc1`, the “hERG current change (%, negative = inhibition) at 10uM” value was found to be 29.8%.

For `Cc1ccc(S(=O)(=O)C2(C(=O)Nc3cccnc3)CC2)cc1`, the “hERG current change (%, negative = inhibition) at 10uM” value is recorded as -11.4%.

As to `O=C(O)Cc1c(-c2ccccc2Cl)c2cc(Br)ccc2[nH]c1=O`, the “hERG current change (%, negative = inhibition) at 10uM” value came out at 5.07%.

On to `CCc1sc2nc(SCC(=O)Nc3cc(C)on3)n(-c3cccc(OC)c3)c(=O)c2c1C`, for which the “hERG current change (%, negative = inhibition) at 10uM” value was determined as 10.2%.

For `CCOC(=O)C1CCCN(c2ncnc3c2cnn3-c2cccc(C)c2)C1` (centres unmarked), the “hERG current change (%, negative = inhibition) at 10uM” value is -33.1%.

`COCCCNc1nc(N)c([N+](=O)[O-])c(Nc2ccccc2OC)n1`: the “hERG current change (%, negative = inhibition) at 10uM” value worked out at 10.7%.

Take `O=C(CCc1ccc(O)c(O)c1)NNC(=S)NCCc1ccccc1`: the “hERG current change (%, negative = inhibition) at 10uM” value was 7.5%.

In the case of `CC(=O)OC1(c2ccccc2)CCN(C)CC1(C)C.Cl` (centres unmarked), the “hERG current change (%, negative = inhibition) at 10uM” value was determined as 35.4%.

Regarding `O=C(/C=C/c1ccco1)Nc1ccc2nn(-c3ccccc3)nc2c1`, the “hERG current change (%, negative = inhibition) at 10uM” value is 1.48%.

For `COc1cccc(NS(=O)(=O)c2ccc3[nH]cc(C(=O)N(C)Cc4ccco4)c(=O)c3c2)c1`, the “hERG current change (%, negative = inhibition) at 10uM” value was 19.8%.

Take `CCS(=O)(=O)c1cc([N+](=O)[O-])c(Sc2ccccc2N)s1`: the “hERG current change (%, negative = inhibition) at 10uM” value worked out at 4.05%.

Regarding `C/C(=N\NC(=O)COc1ccc(C#N)cc1)c1ccccc1OC(F)F`, the “hERG current change (%, negative = inhibition) at 10uM” value is -12.9%.

`COc1ccc(/C=N/NC(=O)c2ccncc2)c(C(=O)O)c1OC`: the “hERG current change (%, negative = inhibition) at 10uM” value was found to be 4.99%.

(Values after article PMC4336329 (PLoS ONE, 2015).)
